Hit rate of the full screen: of about 320,000 compounds, about 200 (0.062%) were called active. The inconclusive results got no clear call from the source; some entries with a clear call stand among them for comparison. Calls follow the shape of the dose curve; as a rule, active = well fitted activation curve with a large enough effect; inconclusive = small, poorly fitted or top-dose-only effect; inactive = no such curve, though single readings can be large or run the other way. No potency is given beside an inconclusive call; the fits are too rough.
test: qHTS assay for re-activators of p53 using a Luc reporter; conditions: H1299 p53-A138V BP100-luciferase reporter, luminescence, 24 h; series mostly up to 92.2 µM; activity change, positive = activation: at the top concentration; also: nearly all actives have a fitted effect of over 45% in size; as to activity change, positive = activation: % of control where 0% means no effect
Method in brief: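 H1299 (p53-null), stable ts p53-A138V + BP100-Luc; 1000 cells/well, Opti-MEM/10% FBS; cpd 4 pt, 1:5; 24 h, 37 deg C, 5% CO2; detection reagent 10 min RT; luminescence.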
Potency is read from the fitted curve at half-maximal effect; tags tell the direction and shape of the fitted curve.

Row | Structure (SMILES) | activity change, positive = activation | Potency
1 | Cc1cc(C)c(C#N)c(=N)o1 | inactive: 7.25% | –
2 | O=C(c1cccc(C(F)(F)F)c1)N1CCCC1 | – | inconclusive [activator, partial curve, poor fit]
3 | CCOC(=O)c1c(C2COc3ccccc3O2)csc1NC(=O)c1ccco1 (stereo not given) | – | inconclusive [activator, partial curve, poor fit]
4 | Cc1ccc2nc(N(CCN(C)C)C(=O)c3ccc4c(c3)OCCO4)sc2c1 | – | inconclusive [activator, full curve, poor fit]
5 | Cc1ccccc1NC(=O)Cc1nc(COC(=O)Cc2c(F)cccc2Cl)cs1 | – | inconclusive [activator, partial curve, poor fit]
6 | Cc1ccc(Nc2nc(C)c(CCC(C)C)c(=O)[nH]2)cc1 | – | inconclusive [activator, single point]
7 | O=C1/C(=C\c2cccnc2)CCc2ccccc21 | – | inconclusive [activator, partial curve, poor fit]
8 | Cc1ccc(C(=O)O/N=C/C2=C(Cl)c3ccccc3CC2)cc1 | inactive: -0.893% | –
9 | N#C/C(=C\c1ccc(OCc2ccc(Cl)cc2)cc1)C(=O)Nc1cccc(C(=O)O)c1 | – | inconclusive [activator, full curve, poor fit]
10 | CCOC(=O)/C(C#N)=C/c1cc(C)n(-c2ccc(C)cc2)c1C | – | inconclusive [activator, full curve, poor fit]
11 | CC(C)CN1C(=O)NC(NC(=O)c2ccco2)(C(F)(F)F)C1=O (stereo not given) | inactive: -1.71% | –
12 | O=C(COc1ccc(F)cc1)Nc1nc(-c2ccccn2)cs1 | inactive: 14.7% | –
13 | COc1ccc(C(=O)N2CCN(C3CCN(Cc4ccccc4)CC3)CC2)cc1OC | inactive: -3.32% | –
14 | COc1ccccc1C(=O)N/N=C/c1cnc2ccccc2n1 | – | inconclusive [activator, partial curve, poor fit]
15 | O=C(Nc1c[nH]c(=O)[nH]c1=O)c1ccccc1Cl | – | inconclusive [activator, single point]
16 | Cc1cc(C)nc(Sc2ncnc3sc4c(c23)CCC4)n1 | inactive: -3.05% | –
17 | CC1CCN(CC(=O)Nc2ccc(S(=O)(=O)N3CCCCC3)cc2)CC1 | – | inconclusive [activator, single point]
18 | COC(=O)c1ccc(CSC2=NCCS2)cc1 | – | inconclusive [activator, partial curve, poor fit]
19 | O=C1CCCC/C1=C\Nc1ccc(Cl)cn1 | – | inconclusive [activator, full curve, poor fit]
20 | O=C(O)CCCCCNC(=O)C(=O)C1C(=O)Nc2ccccc21 (stereo not given) | – | inconclusive [activator, partial curve, poor fit]
21 | N#C/C(=C(/O)COC(=O)CSc1ccc2ccccc2c1)c1nc2ccccc2[nH]1 | – | inconclusive [activator, partial curve, poor fit]
22 | CCC(c1nnnn1CC1CCCO1)N(CCCO)Cc1cc2cccc(C)c2[nH]c1=O (stereo not given) | inactive: -1.23% | –
23 | COc1cc(OC)c(C2C3=C(CCCC3=O)Nc3nc4ccccc4n32)cc1OC (stereo not given) | inactive: 2.32% | –

Row | Structure (SMILES) | activity change, positive = activation | Potency
24 | Cc1cccc(CSCc2nnc(N)s2)c1 | – | inconclusive [activator, partial curve, poor fit]
25 | Cc1ccc(NC(=O)c2ccccc2O)cc1 | – | inconclusive [activator, partial curve, poor fit]
26 | Cn1c(-c2ccccc2F)cc2onc(-c3ccccc3)c2c1=O | inactive: 8.29% | –
27 | Cc1ccc(-n2ncc3c(Nc4cccc(C(=O)O)c4)ncnc32)cc1 | – | inconclusive [activator, partial curve, poor fit]
28 | Cc1cc(C)c2sc(NNC(=O)C3COc4ccccc4O3)nc2c1 (stereo not given) | inactive: -11.3% | –
29 | CCCc1ccc(O)c(N=Cc2cc(Br)cc(OCC)c2O)c1 | – | inconclusive [activator, single point]
30 | CCOC(=O)Cc1c(C)nc2cc(-c3ccc(C(C)(C)C)cc3)[nH]n2c1=O | inactive: 28.2% | –
31 | Brc1ccc(-c2nnc(-c3ccccc3)o2)o1 | – | inconclusive [activator, partial curve, poor fit]
32 | CC(Sc1ccccn1)C(=O)Nc1ccccc1 (stereo not given) | – | inconclusive [activator, partial curve, poor fit]
33 | Nc1nn(-c2cccc(F)n2)cc1-c1ccccc1 | – | inconclusive [activator, partial curve, poor fit]
34 | COc1ccccc1NC(=O)c1c(N=Cc2ccccc2O)cnn1C | inactive: -1.54% | –
35 | O=C(CSc1nc2ccccc2c(=O)[nH]1)N1CCCCCC1 | – | inconclusive [activator, single point]
36 | CCOc1ccc2nc(SCC(=O)N(C)C)[nH]c2c1 | – | inconclusive [activator, partial curve, poor fit]
37 | COc1ccccc1NC(=O)C(C)N1C(=O)c2ccccc2C1=O (stereo not given) | inactive: 6.02% | –
38 | COc1ccc(/C=C/C(=O)Nc2cccc(S(=O)(=O)N3CCOCC3)c2)cc1OC | inactive: -3.47% | –
39 | O=C(CSc1nc2ccccc2[nH]1)Nc1nc(-c2cccc(Br)c2)cs1 | – | inconclusive [activator, full curve, poor fit]
40 | COc1cccc(NC(=O)c2cccc(Cl)c2)c1 | – | inconclusive [activator, full curve, poor fit]
41 | C/C(=N\NC(=O)c1nnn(-c2nonc2N)c1CN1CCOCC1)c1ccc(CC(C)C)cc1 | – | inconclusive [activator, single point]
42 | O=C(CC(=O)c1c(F)cccc1Cl)c1ccccc1O | – | inconclusive [activator, full curve, poor fit]
43 | COc1ccc(CCNC(=O)COC(=O)/C=C/c2ccc3c(c2)OCO3)cc1OC | inactive: 9.43% | –
44 | COc1ccc2nc(/C=N/NC(=O)[C@@H]3CCCN3C(=O)OC(C)(C)C)ccc2c1 | inactive: 0.742% | –
45 | O=C(Nc1ccc(N2CCOCC2)c(Cl)c1)c1cccnc1 | – | inconclusive [activator, partial curve, poor fit]

Source: PubChem BioAssay AID504706 (National Center for Advancing Translational Sciences (NCATS), 2011)
